# The other results are listed elsewhere or left out.
# B1: T7P4 (Tuber borchii) (protein)
# chain: GSHIGPYMSFYASSEDVRTIEEGGRTWLVGRARRADGSWQDIKLDLDNIIGNRDGHLTWGEQNFTQSASDIRFNFEGSNVPVLRAKLRNAAGGEQESDLNLGERLTNNNGDLVFN
# Legend:
# Test in all cases: glycan array binding signal (z-score within array); higher = stronger binding
# Conditions in all cases: glycan notation: IUPAC condensed, linker removed
# GalNAc(a1-3)GalNAc = molecular target: GalNAc(a1-3)GalNAc
# Outline: (§1)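 Glycan array data were curated from 3228 arrays in the Consortium for Functional Glycomics database and kept only where the protein sequence was available. Glycan names were converted to IUPAC-condensed notation, and columns mapping to the same glycan were averaged. The binding signal is a within-array Z-score, averaged across arrays of the same protein sequence at different concentrations or buffers and across linkers. Negative Z-scores can be read as non-binding.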
# [1] = molecular target: GalNAc(b1-3)Gal(a1-4)Gal(b1-4)GlcNAc
# Outline: as §1
# GalNAc(b1-3)GalNAc = molecular target: GalNAc(b1-3)GalNAc
# Outline: as §1
# GalNAc(b1-4)GlcNAc = molecular target: GalNAc(b1-4)GlcNAc
# Outline: as §1
# Glc(a1-4)Glc = molecular target: Glc(a1-4)Glc
# Outline: as §1
# Glc(a1-6)Glc(a1-6)Glc = molecular target: Glc(a1-6)Glc(a1-6)Glc
# Outline: as §1
# Glc(b1-4)Glc = molecular target: Glc(b1-4)Glc
# Outline: as §1
# Glc(b1-6)Glc = molecular target: Glc(b1-6)Glc
# Outline: as §1
# GlcA(b1-3)Gal = molecular target: GlcA(b1-3)Gal
# Outline: as §1
# GlcA(b1-6)Gal = molecular target: GlcA(b1-6)Gal
# Outline: as §1
# [2] = molecular target: GlcNAc(a1-3)Gal(b1-4)GlcNAc
# Outline: as §1
# [3] = molecular target: GlcNAc(a1-6)Gal(b1-4)GlcNAc
# Outline: as §1
# [4] = molecular target: GlcNAc(b1-2)Gal(b1-3)GalNAc
# Outline: as §1
# [5] = molecular target: GlcNAc(b1-2)Gal(b1-3)GlcNAc
# Outline: as §1
# [6] = molecular target: GlcNAc(b1-2)Man(a1-3)[GlcNAc(b1-2)Man(a1-6)]Man(b1-4)GlcNAc(b1-4)GlcNAc
# Outline: as §1
# GlcNAc(b1-3)Gal = molecular target: GlcNAc(b1-3)Gal
# Outline: as §1
# [7] = molecular target: GlcNAc(b1-3)Gal(b1-3)GalNAc
# Outline: as §1
# GlcNAc(b1-3)Gal(b1-4)Glc = molecular target: GlcNAc(b1-3)Gal(b1-4)Glc
# Outline: as §1
# [8] = molecular target: GlcNAc(b1-3)Gal(b1-4)GlcNAc
# Outline: as §1
# [9] = molecular target: GlcNAc(b1-3)Gal(b1-4)GlcNAc(b1-3)Gal(b1-4)GlcNAc
# Outline: as §1
# GlcNAc(b1-3)GalNAc = molecular target: GlcNAc(b1-3)GalNAc
# Outline: as §1
# [10] = molecular target: GlcNAc(b1-3)[GlcNAc(b1-4)][GlcNAc(b1-6)]GlcNAc
# Outline: as §1
# [11] = molecular target: GlcNAc(b1-3)[GlcNAc(b1-6)]Gal(b1-4)GlcNAc
# Outline: as §1
# [12] = molecular target: GlcNAc(b1-3)[GlcNAc(b1-6)]GalNAc
# Outline: as §1
# [13] = molecular target: GlcNAc(b1-3)[GlcNAc(b1-6)]GlcNAc
# Outline: as §1
# [14] = molecular target: GlcNAc(b1-3)[GlcNAc(b1-6)]GlcNAc(b1-4)GlcNAc
# Outline: as §1
# [15] = molecular target: GlcNAc(b1-4)Gal(b1-4)GlcNAc
# Outline: as §1
# [16] = molecular target: GlcNAc(b1-4)GlcNAc(b1-4)GlcNAc
# Outline: as §1
# [17] = molecular target: GlcNAc(b1-4)GlcNAc(b1-4)GlcNAc(b1-4)GlcNAc(b1-4)GlcNAc
# Outline: as §1
# [18] = molecular target: GlcNAc(b1-4)GlcNAc(b1-4)GlcNAc(b1-4)GlcNAc(b1-4)GlcNAc(b1-4)GlcNAc
# Outline: as §1
# [19] = molecular target: GlcNAc(b1-4)[GlcNAc(b1-6)]GalNAc
# Outline: as §1
# [20] = molecular target: GlcNAc(b1-6)Gal(b1-4)GlcNAc
# Outline: as §1
# GlcNAc(b1-6)GalNAc = molecular target: GlcNAc(b1-6)GalNAc
# Outline: as §1
# Kdn(a2-3)Gal(b1-3)GlcNAc = molecular target: Kdn(a2-3)Gal(b1-3)GlcNAc
# Outline: as §1
# Kdn(a2-3)Gal(b1-4)GlcNAc = molecular target: Kdn(a2-3)Gal(b1-4)GlcNAc
# Outline: as §1
# [21] = molecular target: Man(a1-2)Man(a1-2)Man(a1-3)Man
# Outline: as §1
# [22] = molecular target: Man(a1-2)Man(a1-2)Man(a1-3)[Man(a1-2)Man(a1-3)[Man(a1-2)Man(a1-6)]Man(a1-6)]Man(b1-4)GlcNAc(b1-4)GlcNAc
# Outline: as §1
# [23] = molecular target: Man(a1-2)Man(a1-2)Man(a1-3)[Man(a1-2)Man(a1-6)[Man(a1-3)]Man(a1-6)]Man(b1-4)GlcNAc(b1-4)GlcNAc
# Outline: as §1
binder,measurement,setting,value
B1,glycan array binding signal (z-score),GalNAc(a1-3)GalNAc,-0.217
same,glycan array binding signal (z-score),[1],-0.08
same,glycan array binding signal (z-score),GalNAc(b1-3)GalNAc,-0.21
same,glycan array binding signal (z-score),GalNAc(b1-4)GlcNAc,-0.125
same,glycan array binding signal (z-score),Glc(a1-4)Glc,-0.172
same,glycan array binding signal (z-score),Glc(a1-6)Glc(a1-6)Glc,-0.066
same,glycan array binding signal (z-score),Glc(b1-4)Glc,-0.193
same,glycan array binding signal (z-score),Glc(b1-6)Glc,-0.13
same,glycan array binding signal (z-score),GlcA(b1-3)Gal,-0.164
same,glycan array binding signal (z-score),GlcA(b1-6)Gal,-0.212
same,glycan array binding signal (z-score),[2],-0.221
same,glycan array binding signal (z-score),[3],-0.203
same,glycan array binding signal (z-score),[4],0.193
same,glycan array binding signal (z-score),[5],0.204
same,glycan array binding signal (z-score),[6],-0.216
same,glycan array binding signal (z-score),GlcNAc(b1-3)Gal,-0.22
same,glycan array binding signal (z-score),[7],-0.221
same,glycan array binding signal (z-score),GlcNAc(b1-3)Gal(b1-4)Glc,-0.121
same,glycan array binding signal (z-score),[8],-0.219
same,glycan array binding signal (z-score),[9],-0.221
same,glycan array binding signal (z-score),GlcNAc(b1-3)GalNAc,-0.221
same,glycan array binding signal (z-score),[10],-0.209
same,glycan array binding signal (z-score),[11],-0.222
same,glycan array binding signal (z-score),[12],-0.22
same,glycan array binding signal (z-score),[13],-0.22
same,glycan array binding signal (z-score),[14],-0.209
same,glycan array binding signal (z-score),[15],-0.219
same,glycan array binding signal (z-score),[16],-0.218
same,glycan array binding signal (z-score),[17],-0.218
same,glycan array binding signal (z-score),[18],-0.225
same,glycan array binding signal (z-score),[19],-0.222
same,glycan array binding signal (z-score),[20],-0.22
same,glycan array binding signal (z-score),GlcNAc(b1-6)GalNAc,-0.223
same,glycan array binding signal (z-score),Kdn(a2-3)Gal(b1-3)GlcNAc,-0.214
same,glycan array binding signal (z-score),Kdn(a2-3)Gal(b1-4)GlcNAc,-0.219
same,glycan array binding signal (z-score),[21],0.842
same,glycan array binding signal (z-score),[22],-0.215
same,glycan array binding signal (z-score),[23],-0.178

# Source: the supplement of paper PMC8728848
